The structures appear in SMILES notation. About 14,000 (4.5%) of roughly 310,000 compounds showed an effect of 50% or more. Effects have a minus sign here. Some of the results follow.
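Further: peak tail current of the secondary pulse compared with the same well before compound.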

In the assay the target is human ether-à-go-go-related gene (hERG) potassium channel (human, UniProt Q12809). In words: primary screen, population patch clamp on CHO cells stably expressing hERG.
Chain of human ether-à-go-go-related gene (hERG) potassium channel (Q12809 whole entry, looked up): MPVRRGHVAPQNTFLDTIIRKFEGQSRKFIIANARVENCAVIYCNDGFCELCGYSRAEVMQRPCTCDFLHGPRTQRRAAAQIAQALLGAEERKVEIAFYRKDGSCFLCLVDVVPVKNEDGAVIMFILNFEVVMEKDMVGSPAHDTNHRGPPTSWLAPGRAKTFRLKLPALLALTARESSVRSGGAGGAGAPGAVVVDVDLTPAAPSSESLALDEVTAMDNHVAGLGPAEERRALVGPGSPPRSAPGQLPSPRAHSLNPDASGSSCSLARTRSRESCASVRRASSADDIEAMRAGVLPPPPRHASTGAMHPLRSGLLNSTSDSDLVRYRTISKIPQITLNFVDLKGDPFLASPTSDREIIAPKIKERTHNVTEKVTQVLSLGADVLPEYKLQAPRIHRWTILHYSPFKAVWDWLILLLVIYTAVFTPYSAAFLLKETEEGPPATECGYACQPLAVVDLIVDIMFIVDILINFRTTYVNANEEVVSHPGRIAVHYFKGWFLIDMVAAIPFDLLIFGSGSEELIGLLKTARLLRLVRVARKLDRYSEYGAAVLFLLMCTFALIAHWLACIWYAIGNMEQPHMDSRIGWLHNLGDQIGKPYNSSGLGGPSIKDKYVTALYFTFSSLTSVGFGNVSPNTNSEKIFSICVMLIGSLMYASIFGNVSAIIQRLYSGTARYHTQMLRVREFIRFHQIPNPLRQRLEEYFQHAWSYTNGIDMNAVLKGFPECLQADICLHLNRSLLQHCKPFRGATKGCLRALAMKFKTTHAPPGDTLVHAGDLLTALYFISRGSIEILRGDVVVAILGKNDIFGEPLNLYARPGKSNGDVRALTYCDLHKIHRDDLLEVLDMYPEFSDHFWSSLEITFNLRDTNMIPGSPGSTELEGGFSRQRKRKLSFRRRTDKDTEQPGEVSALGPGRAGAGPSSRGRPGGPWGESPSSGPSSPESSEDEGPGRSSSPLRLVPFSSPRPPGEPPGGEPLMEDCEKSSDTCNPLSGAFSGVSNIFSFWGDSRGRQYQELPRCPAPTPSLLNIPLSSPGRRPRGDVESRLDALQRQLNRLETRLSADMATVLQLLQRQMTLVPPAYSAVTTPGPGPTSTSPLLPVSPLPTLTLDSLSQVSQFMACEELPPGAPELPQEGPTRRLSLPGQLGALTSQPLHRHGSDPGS
With `CS(=O)(=O)N1CCC(C(=O)N2CCN(Cc3ccccc3)CC2)CC1`, the “hERG current change (%, negative = inhibition) at 10uM” value is given as 26.7%. With `O=C(CN1C(=O)C2(OCCO2)c2ccccc21)c1ccc(Br)cc1`, the “hERG current change (%, negative = inhibition) at 10uM” value is -8.72%. The same measure for `CC(=O)c1c(N2CCOCC2)nc(=O)n(-c2ccccc2)c1C`: 11.8%.

In the case of `Cc1cccc(N(C)S(=O)(=O)c2c(C)noc2C)c1`, the “hERG current change (%, negative = inhibition) at 10uM” value was -5.07%. The same measure for `CCc1cccc(CC)c1NC(=O)CO/N=C(\C)c1cccs1`: -5.52%; for `COc1cc(/C=C2\SC(=S)N(C(C(=O)O)c3ccccc3)C2=O)cc(OC)c1OC` (stereo not shown): 21.2%; for `COC(=O)C1=C(O)C2(C(=O)O)CC(C(=O)OC)=C(O)C(C(=O)O)(C1)C2`: 4.75%.

In the case of `CC(=O)c1cccc(NC(=O)CC2S/C(=N/N=C/c3cccs3)NC2=O)c1` (stereo not shown), the “hERG current change (%, negative = inhibition) at 10uM” value is reported as -27.6%. For `O=c1[nH]c(=O)n(C2C[C@H](O)[C@@H](CO)O2)cc1C(F)(F)F` (stereo partly shown) the value was 12.2%. For `COC(=O)CN1C(=O)S/C(=C/c2cc(C)n(C)c2C)C1=O` the value was -14.1%; for `CN1C(=O)N(C)C(=O)C2(Cc3cc(NC(=O)c4ccccc4)ccc3N3CCCC32)C1=O` (stereo not shown), 25.9%.

Take `CC1=C(C)CC(C(=O)Nc2cccc([N+](=O)[O-])c2)C(C(=O)O)C1` (stereo not shown): the “hERG current change (%, negative = inhibition) at 10uM” value is given as 0.0439%. The same measure for `O=c1c(Cl)c(N2CCN(S(=O)(=O)c3ccc(F)cc3)CC2)cnn1-c1cccc(Cl)c1`: -29.4%; for `Cc1c(C(=O)NCC2CCCO2)cccc1[N+](=O)[O-]` (stereo not shown): 6.08%; for `Cc1ccc(-c2nnc(SCC(=O)NNC(=O)COc3cccc(C)c3)n2C)cc1`: -4.33%. For `CC12CCC(=O)N1C(C(=O)NNC(=O)c1ccc(F)cc1)CS2` (stereo not shown) the value was 19%; for `N#CCSc1ncccc1-c1nc2ccccc2[nH]1`, 1.01%. Regarding `Cc1oc(-c2ccccc2Cl)[n+]([O-])c1C.Cl`, the “hERG current change (%, negative = inhibition) at 10uM” value is reported as 8.48%. Regarding `Cn1cc2ccc([N+](=O)[O-])cc2n1`, the “hERG current change (%, negative = inhibition) at 10uM” value is listed as 6%. With `CCOC(=O)C1=C(COC(=O)[C@H](C)NS(=O)(=O)c2ccccc2F)NC(=O)NC1C` (stereo partly shown), the “hERG current change (%, negative = inhibition) at 10uM” value is given as 13.3%. `CC1CC1C(=O)OCC(=O)c1c(N)n(C)c(=O)n(C)c1=O` (stereo not shown): the “hERG current change (%, negative = inhibition) at 10uM” value is 4.1%.

Consider `CCOC(=O)c1ccc(S(=O)(=O)N2CCC(C(=O)OCC)CC2)cc1`, for which the “hERG current change (%, negative = inhibition) at 10uM” value is on record as -30.8%. The same measure for `CCc1ccc2nc(N=C(N)N)nc(C)c2c1`: -14.3%; for `Cc1c(NP(=O)(C(C)(C)C)C(C)(C)C)c(=O)n(-c2ccccc2)n1C`: 26.4%; for `Cc1cc2c(C)nc(N/N=C/c3ccccc3)nc2o1`: -27.6%.

The values are drawn from paper PMC4336329 (PLoS ONE, 2015).
